Key:
[1] = target: T1, ICOS-L, human, expressed on HEK 293 cells (human, UniProt O75144 19-302); experiment: cell-cell FACS screen, ICOS-L query cells vs GFP library cells
T1 construct: whole, on cells; Expressed as GFP or mCherry fusion; Library form: ectodomain on the mouse PD-L1 transmembrane segment with GFP; also called Human ICOS-L
T1 sequence (looked up): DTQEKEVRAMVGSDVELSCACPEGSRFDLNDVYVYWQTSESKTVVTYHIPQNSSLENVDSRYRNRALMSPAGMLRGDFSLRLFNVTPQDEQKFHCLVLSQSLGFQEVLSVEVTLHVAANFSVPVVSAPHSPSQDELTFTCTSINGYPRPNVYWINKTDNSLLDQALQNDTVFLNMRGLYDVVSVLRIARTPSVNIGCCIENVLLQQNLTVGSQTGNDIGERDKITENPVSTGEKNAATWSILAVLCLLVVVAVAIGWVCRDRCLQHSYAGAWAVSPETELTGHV

[2] = target: T2, ICOS-L Fc-fusion protein (soluble, purified) (human, UniProt O75144 19-256, limits assumed); experiment: competition: ICOS-L-coated microbeads on CTLA-4 or CD28 cells with increasing ENBREL, flow cytometry
T2 construct: Expressed in HEK 293 cells, purified by Ni2+-NTA and gel filtration; Used soluble or on protein A microbeads; also called ICOS-L Fc (IgG2a); ICOS-L mIgG2a
T2 sequence (looked up): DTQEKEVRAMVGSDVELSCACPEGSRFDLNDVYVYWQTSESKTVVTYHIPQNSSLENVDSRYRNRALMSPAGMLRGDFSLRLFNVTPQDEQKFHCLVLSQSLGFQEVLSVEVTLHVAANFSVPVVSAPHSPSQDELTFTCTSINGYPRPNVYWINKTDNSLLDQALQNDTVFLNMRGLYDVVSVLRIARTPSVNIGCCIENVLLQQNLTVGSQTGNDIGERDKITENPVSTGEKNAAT

B1: CD28, human, expressed on cells (receptor)
chain: not shown
notes: whole, on cells; GFP fusion in the library (ectodomain on mouse PD-L1 transmembrane segment)
- binding result [1]: binds

B2: ENBREL® (etanercept), fusion of TNFR-1B to IgG1 Fc (Fc fusion)
chain: LPAQVAFTPYAPEPGSTCRLREYYDQTAQMCCSKCSPGQHAKVFCTKTSDTVCDSCEDSTYTQLWNWVPECLSCGSRCSSDQVETQACTREQNRICTCRPGWYCALSKQEGCRLCAPLRKCRPGFGVARPGTETSDVVCKPCAPGTFSNTTSSTDICRPHQICNVVAIPGNASMDAVCTSTSPTRSMAPGAVHLPQPVSTRSQHTQPTPEPSTAPSTSFLLPMGPSPPAEGSTGD[… human IgG1 Fc …]
notes: Used soluble or coated on protein A microbeads; also called TNFR-1B Fc fusion; soluble TNFR-1B
- binding result [2]: binds

B3: CTLA-4, human, expressed on cells (receptor)
chain: not shown
notes: as for B1
- binding result [1]: binds

Reference: patent publication US20180273604A1 (ALBERT EINSTEIN COLLEGE OF MEDICINE, published 2018)
